Screen size: about 310,000 compounds; about 2,200 (0.71%) showed an effect of 50% or more. The effect is printed as a negative number. The list shows a part of the results.

The source of these data is publication PMC4336329 (PLoS ONE, 2015).

In the assay the target is human ether-à-go-go-related gene (hERG) potassium channel (human, UniProt Q12809). Description: primary screen, population patch clamp on CHO cells stably expressing hERG.
Sequence of human ether-à-go-go-related gene (hERG) potassium channel (Q12809 whole entry, looked up): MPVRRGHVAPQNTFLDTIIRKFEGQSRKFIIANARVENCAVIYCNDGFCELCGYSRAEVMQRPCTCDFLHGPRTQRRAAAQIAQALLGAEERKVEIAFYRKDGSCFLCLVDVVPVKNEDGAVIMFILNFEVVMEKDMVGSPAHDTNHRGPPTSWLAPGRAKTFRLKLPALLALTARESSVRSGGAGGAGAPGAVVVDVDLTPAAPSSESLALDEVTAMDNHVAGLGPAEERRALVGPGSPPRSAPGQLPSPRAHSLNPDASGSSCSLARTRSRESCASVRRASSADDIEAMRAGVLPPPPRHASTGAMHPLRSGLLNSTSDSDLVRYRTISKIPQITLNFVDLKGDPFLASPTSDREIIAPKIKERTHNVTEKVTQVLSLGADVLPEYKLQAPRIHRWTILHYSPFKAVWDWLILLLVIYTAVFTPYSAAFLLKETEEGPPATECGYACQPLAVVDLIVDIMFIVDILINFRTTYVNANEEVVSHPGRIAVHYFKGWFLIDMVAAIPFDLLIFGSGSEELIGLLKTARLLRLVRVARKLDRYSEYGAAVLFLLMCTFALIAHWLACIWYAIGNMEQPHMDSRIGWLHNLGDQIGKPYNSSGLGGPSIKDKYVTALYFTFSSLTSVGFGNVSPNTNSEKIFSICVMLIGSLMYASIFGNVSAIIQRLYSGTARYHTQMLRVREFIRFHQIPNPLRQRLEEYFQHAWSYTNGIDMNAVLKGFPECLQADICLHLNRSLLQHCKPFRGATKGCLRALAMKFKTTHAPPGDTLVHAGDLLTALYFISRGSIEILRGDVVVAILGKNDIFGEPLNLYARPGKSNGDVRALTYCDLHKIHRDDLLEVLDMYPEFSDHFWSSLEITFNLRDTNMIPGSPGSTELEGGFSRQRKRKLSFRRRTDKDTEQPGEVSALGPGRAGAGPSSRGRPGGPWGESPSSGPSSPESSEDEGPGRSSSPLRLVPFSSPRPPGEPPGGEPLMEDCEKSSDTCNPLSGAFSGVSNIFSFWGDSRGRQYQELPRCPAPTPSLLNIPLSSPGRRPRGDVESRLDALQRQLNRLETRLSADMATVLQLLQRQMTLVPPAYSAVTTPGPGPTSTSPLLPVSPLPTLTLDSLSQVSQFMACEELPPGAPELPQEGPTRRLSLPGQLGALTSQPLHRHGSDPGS
Regarding `O=C(Cn1nnc(-c2ccccc2Cl)n1)N1CCCCC1`, the “hERG current change (%, negative = inhibition) at 1uM” value came out at 14%. With `O=C(O)c1ccccc1Sc1c([N+](=O)[O-])cc(C(F)(F)F)cc1[N+](=O)[O-]` the figure was 25.8%; with `Cc1onc(-c2ccccc2)c1C(=O)N1CCN(C)CC1`, 5.97%. Next, `C=CCSc1nnc2c(n1)OC(c1cccnc1)N(C(C)=O)c1ccccc1-2` (centres unmarked): 0.113%. Next, `COc1ccc(C(=O)N2CCN(Cc3cn[nH]c3-c3ccc(OC)cc3F)CC2)cc1`: -9.62%; `O=Nc1c(O)n(Cc2ccc(Cl)c(Cl)c2)c2ccccc12`: 13.6%.

In the case of `COc1ccc(S(=O)(=O)NC(C)C(=O)NCc2cccnc2)cc1C` (centres unmarked), the “hERG current change (%, negative = inhibition) at 1uM” value is -15.9%. Next, `CCOc1ccc2[nH]c(=O)c(CN(CC3COCCO3)C(=O)c3ccc(C)cc3)cc2c1` (centres unmarked): 3.63%; `O=c1c2ccccc2nc(/C=C/c2cc(Br)ccc2O)n1CCCO`: 6.3%; `CC1=C(C(=O)OC2CCCCC2)C(c2cccc([N+](=O)[O-])c2)NC(=O)N1` (centres unmarked): 11.4%.

Regarding `O=S(=O)(Oc1ccccc1)c1cccnc1`, the “hERG current change (%, negative = inhibition) at 1uM” value is on record as 8.1%.

Regarding `OCC[C@H]1C[C@@H](O)[C@H](O)[C@]2(CCc3ccccc3O2)O1`, the “hERG current change (%, negative = inhibition) at 1uM” value came to 9.28%. Turning to `CCn1nnnc1SCC(=O)c1ccc(C)cc1`, the “hERG current change (%, negative = inhibition) at 1uM” value is listed as -4.25%.

As for `CSCC[C@H](NC(=O)[C@@H]1Cc2ccccc2CN1)C(=O)NC(C)c1ccccc1` (some centres unmarked), the “hERG current change (%, negative = inhibition) at 1uM” value was determined as 14%.

On to `Nc1nc(NCCCN2CCOCC2)nc(Nc2ccccc2F)c1[N+](=O)[O-]`, for which the “hERG current change (%, negative = inhibition) at 1uM” value is 10.4%. With `O=C(C1CCCCC1)N1CCc2[nH]c3ccc(F)cc3c2C1` the figure was 7.38%; with `Cc1cccc(NC(=O)c2ccccc2OCC(=O)c2ccccc2)c1`, 16.5%; with `COc1ccccc1NC(=O)C1C2C=CC(C2)C1C(=O)NCc1cccnc1` (centres unmarked), 4.29%. With `O=C(CN(CC1CCCO1)C(=O)CNS(=O)(=O)c1ccc(F)cc1)NCc1ccccc1` (centres unmarked) the figure was 8.27%; with `CN(CC(=O)Nc1ccc(OC(F)(F)F)cc1)C(=O)Cc1ccc2c(c1)CCC2`, 15.2%. Next, `CCOc1ccc(S(=O)(=O)N2CCOCC2)cc1NC(=O)C1CCC1`: 8.22%; `CCC(C)[C@H](NC(=O)N1CC(=O)Nc2ccccc21)C(=O)N[C@@H](Cc1c[nH]c2ccccc12)C(=O)O` (some centres unmarked): 0.677%. Take `Cc1ccc(NC(=O)Cn2cccc2)cc1Cl`: the “hERG current change (%, negative = inhibition) at 1uM” value is on record as -8.85%.

`Cc1ccc(C(=O)Nc2ccc(S(=O)(=O)NCc3ccco3)cc2)cc1`: the “hERG current change (%, negative = inhibition) at 1uM” value was -2.03%. With `Cc1cccc(NC(=O)CNC(=O)c2cccc(-n3cccc3)c2)c1C` the figure was 0.397%. Next, `CS(=O)(=O)c1ccc2nc(NC(=O)C3C4C=CC(C4)C3C(=O)O)sc2c1` (centres unmarked): 10.4%; `CCOC(=O)CCc1c(C)c2ccc(OCc3cc([N+](=O)[O-])ccc3OC)c(C)c2oc1=O`: 7.94%; `Cc1cc2ccccc2cc1CN1CCOCC1`: 12.3%.

For the compound `CC(C)C(C)N(Cc1ccc(C(=O)O)cc1)C(=O)c1ccc2ccccc2n1` (centres unmarked), the “hERG current change (%, negative = inhibition) at 1uM” value is reported as 4.93%.

In the case of `CCn1c2ccccc2c2cc(NC(=O)c3ccc(Br)o3)ccc21`, the “hERG current change (%, negative = inhibition) at 1uM” value came out at 10.9%. Next, `O=C(Nc1cccnc1)c1ccc(Cl)c(S(=O)(=O)N2CCc3ccccc32)c1`: 2.73%; `OCc1cn(-c2ccccc2)nc1-c1cccnc1`: 11.3%; `CCN1CCN(C(=O)N(Cc2ccc(Cl)cc2)S(=O)(=O)c2ccc(C)cc2)CC1`: -12.5%.

`CC1(C)CC(CC(=O)O)CC(C)(C)N1.Cl`: the “hERG current change (%, negative = inhibition) at 1uM” value was determined as 6.08%.

Take `COc1ccccc1N1CCN(c2nccc(C)n2)CC1`: the “hERG current change (%, negative = inhibition) at 1uM” value was 9.04%. Next, `Cc1[nH]c2c(C)cccc2c1CCNC(=O)c1ccc2c(c1[N+](=O)[O-])C(=O)c1ccccc1C2=O`: 15%. Next, `Cc1ccc(C)c(S(=O)(=O)N2CCCOC2CNC(=O)C(=O)NC2CC2)c1` (centres unmarked): 19.9%; `Cc1ccc(CNC(=O)CN(C)S(=O)(=O)c2ccc(F)cc2)cc1`: 3.37%; `CCOc1ccc(NC(=O)COC(=O)c2cc([N+](=O)[O-])ccc2N2CCOCC2)cc1`: -5.99%. With `CCOc1ccc(C(=O)C2CCN(C(=O)c3ccc([N+](=O)[O-])cc3)CC2)cc1` the figure was -81.1%; with `Cc1ccc(NC(=O)C2CC(=O)n3c(nc4ccccc43)N2)cc1C` (centres unmarked), 7.27%; with `CSc1nc2ccccc2c(=O)n1C1CCCCC1`, 12.4%.

As for `COc1ccc(C2(CNC(=O)Cc3ccc(OC)c(OC)c3)CCCC2)cc1`, the “hERG current change (%, negative = inhibition) at 1uM” value was -6.09%. Next, `c1ccc2c(CCNC3=NCCC3)c[nH]c2c1`: 11.9%.

For `Nc1nc(NCc2ccco2)nc(N2CCN(Cc3ccccc3)CC2)c1[N+](=O)[O-]`, the “hERG current change (%, negative = inhibition) at 1uM” value is -10%. With `CN(CC(=O)Nc1ccccc1C(F)(F)F)C(=O)COc1ncnc2sccc12` the figure was 6.31%; with `O=C(O)CCn1nnc(-c2cccs2)n1`, 7.06%; with `O=C(N/N=C\c1ccc2c(c1)OCO2)c1cncc(Br)c1`, 9.36%. Next, `O=C(COc1ccccc1[N+](=O)[O-])Nc1ccc2oc(=O)ccc2c1`: 17%. With `O=C(Nc1nnc(-c2ccc3c(c2)CCCC3)o1)c1ccc(Cl)cc1Cl` the figure was 4.18%; with `CC(C)(C)NC(=O)CSc1nsc(SCC(=O)NC(C)(C)C)c1C#N`, 6.97%; with `CSCCC(N=C(NS(=O)(=O)c1ccc(Br)cc1)c1ccccc1)C(=O)O` (centres unmarked), 22.9%.

In the case of `NC(=O)CSc1nnc(-c2ccccn2)n1Cc1ccco1`, the “hERG current change (%, negative = inhibition) at 1uM” value is given as 18.4%. In the case of `Cc1csc(N/N=C/c2ccccc2F)n1`, the “hERG current change (%, negative = inhibition) at 1uM” value was determined as 12.1%.

In the case of `O=C(NCC1COc2ccccc2O1)Nc1ccccc1F` (centres unmarked), the “hERG current change (%, negative = inhibition) at 1uM” value is given as -0.0005%. With `CC(C)CCNC(=O)Cn1c(=O)oc2cc(S(=O)(=O)N3CCc4ccccc43)ccc21` the figure was 11.3%; with `CCc1cccc(NC(=O)CS(=O)Cc2nc(-c3ccc(C)cc3)oc2C)c1` (centres unmarked), 0.247%. With `Cc1ccc(O)c(NC(=O)C2CC(c3ccc(F)cc3)=NO2)c1` (centres unmarked) the figure was 2.14%.

For `O=C(CN1CCN(c2ccc(O)cc2)CC1)Nc1cc(S(=O)(=O)N2CCOCC2)ccc1Cl`, the “hERG current change (%, negative = inhibition) at 1uM” value turned out to be 5.66%. As to `CSc1ccc(CN(C)CC(=O)Nc2ccc(C)cc2Br)cc1`, the “hERG current change (%, negative = inhibition) at 1uM” value amounted to 1.23%. Next, `CC(C)NC(=O)C1CCCN(S(=O)(=O)c2cccc3nonc23)C1` (centres unmarked): 6.87%. Next, `COc1ccc(NC(=O)CCSc2nnnn2C)cc1`: 10.2%; `CC(C)C[C@H](NC(=O)c1[nH]cnc1C(=O)Nc1ccccc1)C(=O)OC(C)(C)C`: 6.21%; `COc1ccc(NC(=O)c2cc3ccc(O)cc3o/c2=N\O)cc1`: 12.4%. Next, `Nc1cc([N+](=O)[O-])ccc1N1C(=O)CCCC1=O`: 15.4%. For `CN(C)C=O.Cc1ccccc1NC(=O)COC(=O)C1=COCCO1`, the “hERG current change (%, negative = inhibition) at 1uM” value worked out at 9.34%.

On to `COCCNCC(=O)Nc1ccccc1Sc1ccccc1.O=C(O)C(=O)O`, for which the “hERG current change (%, negative = inhibition) at 1uM” value is reported as 9.2%. Consider `COc1ccc2nc3oc(C(=O)N4CCC(C(N)=O)CC4)cc3cc2c1`, for which the “hERG current change (%, negative = inhibition) at 1uM” value was 7.67%. Next, `CC(Oc1ccccc1Cl)C(=O)Nc1ccccc1C(=O)N1CCOCC1` (centres unmarked): 14%. On to `CC(=O)Nc1ccc(S(=O)(=O)NC2=C(N3CCN(c4ccc(F)cc4)CC3)C(=O)c3ccccc3C2=O)cc1`, for which the “hERG current change (%, negative = inhibition) at 1uM” value came to 12.5%. For `Cc1ccc(C(=O)NCCSCc2ccccc2)cc1[N+](=O)[O-]`, the “hERG current change (%, negative = inhibition) at 1uM” value is listed as 2.33%. Next, `CC1(C)Cc2ccccc2C(NNC(=O)c2ccccn2)=N1`: 10.8%. Next, `CCc1cc(/C(Cc2cscn2)=N\O)c(O)cc1O`: -1.74%; `CCC(C)(C(=O)NC1CCCC1)N(C(=O)CC1NC(=O)NC1=O)c1c(C)n(C)n(-c2ccccc2)c1=O` (centres unmarked): 11.5%; `Clc1cccc(N=C2NN=C(c3ccc4c(c3)OCCO4)CS2)c1`: 13.8%. `COc1ccccc1C(=O)NCCC(=O)Nc1ccc(C)cn1`: the “hERG current change (%, negative = inhibition) at 1uM” value is 5.6%.

For the compound `CCN(CC)S(=O)(=O)c1ccc(C(=O)N(c2ccc(C)cc2)C2C=CS(=O)(=O)C2)cc1` (centres unmarked), the “hERG current change (%, negative = inhibition) at 1uM” value stood at 8.76%.

Turning to `Cc1ccc(C(=O)COC(=O)c2cn3ccccc3n2)cc1`, the “hERG current change (%, negative = inhibition) at 1uM” value is on record as 12%. As for `Cc1ccc(S(=O)(=O)N2CCN(C3CC(=O)N(Cc4ccccc4)C3=O)CC2)cc1C` (centres unmarked), the “hERG current change (%, negative = inhibition) at 1uM” value is -3.87%. On to `Cc1ccc(C(=O)CC2(O)C(=O)N(Cc3ccccc3Cl)c3ccccc32)o1` (centres unmarked), for which the “hERG current change (%, negative = inhibition) at 1uM” value stood at 5.22%. Next, `COc1ccc(CCCCCCOCc2ccccc2)cc1`: 15%; `COc1ccc(CCNC(=O)Cn2nnc(C(=O)Nc3cc(C)ccc3C)c2N)cc1OC`: 4.67%. Next, `O=C(Nc1ccc(S(=O)(=O)N2CCCCC2)cc1)C1CC(=O)N(Cc2ccccc2)C1` (centres unmarked): 13.4%; `COc1ccc(C(=O)Cn2c(Br)nc3c2c(=O)n(C)c(=O)n3C)cc1OC`: 14.7%; `O=C(OCCCN=C1NS(=O)(=O)c2ccccc21)C1CC(=O)N(c2ccc(Cl)cc2)C1` (centres unmarked): -6.53%. With `COc1cccc(-c2nn(C)c3sc(C(=O)N4CCN(c5ccccc5)CC4)cc23)c1`, the “hERG current change (%, negative = inhibition) at 1uM” value came out at 13.8%.
